# Laboratory results: patent US20210121565A1
# B1: Exemplified anti-Tau antibody (having both HCs of SEQ ID NO.2 and both LCs of SEQ ID NO.1) (antibody, human IgG4 S228P, kappa, F234A L235A)
# heavy: EVQLVQSGAEVKKPGESLKISCKGSGYTFSNYWIEWVRQMPGKGLEWMGEILPGSDSIKYEKNFKGQVTISADKSISTAYLQWSSLKASDTAMYYCARRGNYVDDWGQGTLVTVSSASTKGPSVFPLAPCSRSTSESTAALGCLVKDYFPEPVTVSWNSGALTSGVHTFPAVLQSSGLYSLSSVVTVPSSSLGTKTYTCNVDHKPSNTKVDKRV[left out - human IgG4 Fc with S228P F234A L235A (EU numbers)]
# light: EIVLTQSPGTLSLSPGERATLSCRSSQSLVHSNQNTYLHWYQQKPGQAPRLLIYKVDNRFSGIPDRFSGSGSGTDFTLTISRLEPEDFAVYYCSQSTLVPLTFGGGTKVEIKRTVAAPSVFIFPPSDEQLKSGTASVVCLLNNFYPREAKVQWKVDNALQSGNSQESVTEQDSKDSTYSLSSTLTLSKADYEKHKVYACEVTHQGLSSPVTKSFNRGEC
# Target: tau aggregates in brain stem homogenate preps from 4.5 to 5 month old P301S mice, P10636
# Test: cell-based or functional assay
binder,measurement,value
B1,"% PG-5 Immunoreactivity, Left Hippocampus",2.52%
same,"% PG-5 Immunoreactivity, Right Hippocampus",0.63%
